Source: the supplement of paper PMC11417369
Some of the results follow.

These sequences were tested on PfAP2-HC AP2 domain (GST-tagged) (assay: gcPBM binding intensity (ln(normalized median fluorescence intensity)); higher = stronger DNA binding).
How it was run: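 For binding intensity, the highest Masliner-normalised natural-log median intensity across replicate spots of either probe orientation was taken. Protein bound to the array was stained with Alexa488 anti-GST antibody and scanned at 488 nm. The protein, GST-tagged P. falciparum DNA-binding domains from E. coli at about 25 μg on average, had been applied for 1 h to an Agilent 4 × 180k array of primer-extended double-stranded 36-bp intergenic genomic probes and negative controls.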

First: GATGAAAATAGAAATACACACTAAAAAATAAAATTA [CACACA_site4764]
Second: TGCATACTTTTGTAAGTGCATAAAATCGTACCATGC
The “gcPBM binding intensity (ln)” value of the first is higher: 9.77 for the first, 9.33 for the second.

First: GAAATAATTCGATGTGCATGTAACGTTTCCCCAAAG [TGCATGCA_site122]
Second: TTATTTTTCCGGAATAGTACATAGACGCAGATATAA [XGTACX_site6356]
The “gcPBM binding intensity (ln)” value of the first is higher: 9.73 for the first, 9.49 for the second.

First: TAGAAGCATGGACACACACACATACATACCCATACA [CACACA_site4916]
Second: CTCAATGTTTGCGATACATGCAAAAATTTTTAGAAT [TGCATGCA_site165]
The “gcPBM binding intensity (ln)” value of the first is higher: 11.2 for the first, 9.59 for the second.

Going from “TACATTTCATTGTAATCATAAAAAATAAAGAAAAAA [XGTACX_negctrl_site542]” to “TCTATATCTTTCAACACACAAATTTTTTTTTCCATC [CACACA_site4238]”, the “gcPBM binding intensity (ln)” value rises from 9.4 to 9.72.

Going from “AAAAAAAAAAAAAAAGTGCACAGTCGTTTTAAAAAA [GTGCAC_site9848]” to “AAATCATTTAAGAACACACAAATATTTCCATTAAAT [CACACA_site6808]”, the “gcPBM binding intensity (ln)” value rises from 9.49 to 9.67.

First: ATTAACTATCATAACACACACAGTAGACATATTTTT [CACACA_site1822]
Second: AAGATAATATTTTCTTGTACGCATGCACATACAAAT [XGTACX_site7181]
The “gcPBM binding intensity (ln)” value of the first is higher: 10.1 for the first, 9.58 for the second.

Compared with “CTTTTCTCCCTCCATAGTACAATTATAAAAATATAT [XGTACX_site3090]”, “ATGCAAAGTTTATAAAGTACATAAGTCAAAATAAAA [XGTACX_site1441]” is higher in “gcPBM binding intensity (ln)” value: 9.54 for the first, 9.71 for the second.

Compared with “ATTATATACATATATATACACACGTAGTTTCTATTT [CACACA_site8697]”, “TATAAATAAATAGATACACACATATATATAAATACA [CACACA_site155]” is higher in “gcPBM binding intensity (ln)” value: 9.9 for the first, 10.1 for the second.

Going from “ATATATATATATAAATGTACATTTTTCAATAGTTTT [XGTACX_site7449]” to “TACTTTTTATTTTCTTGTACTTAATTGTCCAGATTT [XGTACX_site4334]”, the “gcPBM binding intensity (ln)” value falls from 9.91 to 9.65.

Compared with “CTTATTATTATATGGGTGCTCATATTTTTCTTTTTT [GTGCAC_site9723]”, “ACAAACATTAGGGAAGCATGCAATATTTTTTTACAT [TGCATGCA_site372]” is lower in “gcPBM binding intensity (ln)” value: 9.82 for the first, 9.65 for the second.

Compared with “TGTAGATTTTGTAACACACACATATATATACATATA [CACACA_site2405]”, “ATTCTTATTTAAAGGTGTACTCTTAAACAGATTTTA [XGTACX_site3526]” is lower in “gcPBM binding intensity (ln)” value: 10 for the first, 9.54 for the second.

Compared with “GTACACATATAGTAATAATTTTATTATATTTTTTTG [CACACA_negctrl_site843]”, “ATTTTAATATAAAATACACACTACTATTATAAATAT [CACACA_site4917]” is higher in “gcPBM binding intensity (ln)” value: 9.6 for the first, 9.64 for the second.

Going from “AGATTTAAATTTATATGTACATAATATGGGCGTATA [XGTACX_site6631]” to GGTCTTCTTAATATACTGCACTGTATACGTATATAA, the “gcPBM binding intensity (ln)” value rises from 9.64 to 9.8.

Compared with “TTCATAAAATGATATTGTACAAATAAATAATAGTAT [XGTACX_site819]”, “GCTTATATAAAAAGTTGTACAACCGAATCTTTTACA [XGTACX_site2119]” is lower in “gcPBM binding intensity (ln)” value: 9.68 for the first, 9.65 for the second.

Compared with “TAATATCATTTATGTAGTACTATAACAAGAACTATA [XGTACX_site3618]”, “AAAAAAAAAAAGCACACACACATATGAGTATATATA [CACACA_site4683]” is higher in “gcPBM binding intensity (ln)” value: 9.27 for the first, 10.3 for the second.

“AATGTAAAAGTAAACACACACATATATAAATACATA [CACACA_site5386]” and “TACACAAGCAGACACACACACATATATATATATATA [CACACA_site1270]” are the same in “gcPBM binding intensity (ln)” value: 10.2 for the first, 10.2 for the second.

First: GTACATAGATTGTACATACACACCTATATAAATATC [CACACA_site3225]
Second: AATATATGGTTCCATGATATTAAATTCAATTTAATG [CACACA_negctrl_site605]
The “gcPBM binding intensity (ln)” value of the first is higher: 9.88 for the first, 9.47 for the second.

Compared with “TTTTTTTTGTTCTATACAATTATAAAAATAAAATAT [XGTACX_negctrl_site53]”, “AGTTGTTTTAATAATGCATGTTATTTTATTTTAATA [TGCATGCA_site168]” is higher in “gcPBM binding intensity (ln)” value: 9.06 for the first, 9.72 for the second.

Going from “TATATATATAGACACACACACACATATATATATATA [CACACA_site9366]” to “GTATATATATATGTATATATTTTATTTTATTTTTAT [CACACA_negctrl_site1439]”, the “gcPBM binding intensity (ln)” value falls from 10.7 to 9.64.

Going from “TAGATATATAGACACACACACATTAATACCTATATT [CACACA_site7605]” to “TGTCATTTAATTTTTTGTACGAAAAAAACATATAAA [XGTACX_site4952]”, the “gcPBM binding intensity (ln)” value falls from 10.7 to 9.38.

Compared with “TTCTCATCCTTACATACACACACATATATATATATA [CACACA_site7914]”, “TATAATCATAAATACACACACATATATATATATATA [CACACA_site5224]” is lower in “gcPBM binding intensity (ln)” value: 10.1 for the first, 9.86 for the second.

Compared with “GTTCAATTATTTTTATGTACATATATTTTTTTCTTT [XGTACX_site2505]”, “AAATTGGGGCTTGTTACACACTTAGTGTGAGTTCTA [CACACA_site6417]” is higher in “gcPBM binding intensity (ln)” value: 9.95 for the first, 9.99 for the second.

First: ATTTATAATATGTATACACACACATATATAAATATA [CACACA_site8729]
Second: TATTTATTATAAAAATTGTATAAAATAATAATGCTC [GTGCAC_negctrl_site456]
The “gcPBM binding intensity (ln)” value of the first is higher: 9.83 for the first, 9.49 for the second.

Compared with “GTTATTAAAAACGGGTGTACACATATATAAATATAT [XGTACX_site1234]”, “ACTTTTTTAATGTTACGTACACATAAATAATAATTA [XGTACX_site8092]” is lower in “gcPBM binding intensity (ln)” value: 9.82 for the first, 9.69 for the second.

First: TTTCACAAATGATATAGTACTTTTTATTATTAACAT [XGTACX_site7976]
Second: TTCATTCTATAAAACACACAAATATTTTTGTATCCC [CACACA_site6458]
The “gcPBM binding intensity (ln)” value of the first is higher: 9.64 for the first, 9.61 for the second.

Compared with “TTTTGTGATCTTACCACCTTTCATAATATTAATAAA [GTGCAC_negctrl_site360]”, “ATATATTTTAATGATACACACAAGAAATAAAATTAC [CACACA_site5671]” is higher in “gcPBM binding intensity (ln)” value: 9.46 for the first, 9.92 for the second.

Going from “ATAGAACAATTCAGAAGTACATAAAAAGAAAAATTT [XGTACX_site3015]” to “TTGGATGATTAAGGGGGACACACGTTTATATATTTA [CACACA_site338]”, the “gcPBM binding intensity (ln)” value rises from 9.66 to 9.84.

Compared with “AAATGTAAAATTTTATGTACATATATTTATATAATA [XGTACX_site3737]”, “GTTACACCAACAAACACACACACACCGACACCCAAA [CACACA_site5361]” is higher in “gcPBM binding intensity (ln)” value: 9.56 for the first, 10.6 for the second.

Going from “ACAAATGAGATTATATGTACACATAACAAATTTACA [XGTACX_site3496]” to “ATGTTTTATAAAAGGCGTACACATATATTTAAGTAA [XGTACX_site6231]”, the “gcPBM binding intensity (ln)” value falls from 9.87 to 9.8.

Compared with “TTTATTTATTTAATTACACACGAACATATAACCATT [CACACA_site7952]”, “TAAAAAAAAAAAAAAGTACACACTTATAAAATATTA [CACACA_site872]” is lower in “gcPBM binding intensity (ln)” value: 9.77 for the first, 9.62 for the second.

Going from “ATATATTTTTTGAATACACACATATTATATGTAATA [CACACA_site1256]” to “AATACATAAAAATAAAAATAAAATATAACTAATATG [CACACA_negctrl_site186]”, the “gcPBM binding intensity (ln)” value rises from 9.7 to 9.75.

First: TTATACATATATTTAACACACATTTTATAAAGTGCC [CACACA_site1314]
Second: AAAACTATAATGAATAGTACATAAAAATGGATATAT [XGTACX_site6056]
The “gcPBM binding intensity (ln)” value of the first is lower: 9.6 for the first, 9.91 for the second.

Going from “AATCGATAAAATGTTGTGCACATATTTTTATATTTA [GTGCAC_site9651]” to “TTTTGACATTAATTACTATAGTGTTCTTATAAAATT [TGCATGCA_negctrl_site589]”, the “gcPBM binding intensity (ln)” value falls from 9.71 to 9.62.

Going from “CATTTTATTTTAATATGTACTTAAAGAAAAAAAATT [XGTACX_site7670]” to “AATATGTATCCATACACACATACATTTTATTTGCAA [CACACA_site874]”, the “gcPBM binding intensity (ln)” value rises from 9.27 to 9.85.

First: TTTTATTTATTATTTACACACACGTAGGTGTCCATA [CACACA_site430]
Second: TTAAATTACTAATGTGCACACATACTAACGTTTAAA [CACACA_site3573]
The “gcPBM binding intensity (ln)” value of the first is higher: 10.1 for the first, 9.9 for the second.

Compared with “TATCTTATTTTATCTCGTACATAAAATTAAAAAATT [XGTACX_site3636]”, “TATTATAACTAAAAAAATCACATAAAATACTTTATT [CACACA_negctrl_site2]” is higher in “gcPBM binding intensity (ln)” value: 9.29 for the first, 9.39 for the second.

Going from “TTATATTTTTTAATTACACACAATTCTTATAAATAT [CACACA_site7870]” to “TTAACCTTTATATAATACGTATCATCCTCATATATA [CACACA_negctrl_site86]”, the “gcPBM binding intensity (ln)” value rises from 9.68 to 9.74.

Compared with “ATATAAAATCAACAAAAAAAAAAAATATATATATAT [XGTACX_negctrl_site251]”, “TGTATATATTTGTGCACACCAAAGTTTGATTTTATT [CACACA_site1860]” is higher in “gcPBM binding intensity (ln)” value: 9.45 for the first, 10.1 for the second.

Going from “ATATATAATATATGATGTACTTAATAATTTTTTTTT [XGTACX_site5715]” to “TAATAATCCACAAGCACACACACACCCATATATATA [CACACA_site1267]”, the “gcPBM binding intensity (ln)” value rises from 9.5 to 10.8.

First: TTAAGGATCCACGATACACACATATCATTCAACAAA [CACACA_site1924]
Second: TATATACACATGCGCACACACAAGTGGGAAATTTGG [CACACA_site6930]
The “gcPBM binding intensity (ln)” value of the first is lower: 9.8 for the first, 10.2 for the second.

First: AATATTTGCCTATGTTGTACTGACATTTTTTTAAGT [XGTACX_site6836]
Second: TTATTCTAGTAGTGTGTGCGCATGGACAATGCAATA
The “gcPBM binding intensity (ln)” value of the first is lower: 9.73 for the first, 10.5 for the second.

First: ATACATATAATATATGCATGTACCAATCAAATATAT [TGCATGCA_site192]
Second: TATATATCGTTATATACACACATGTATATAAAAAAT [CACACA_site7501]
The “gcPBM binding intensity (ln)” value of the first is lower: 9.68 for the first, 9.88 for the second.

Compared with “TTATTATATATTTTATTTATTAATAGTATATATTAT [TGCATGCA_negctrl_site155]”, “TAATTTTTTTTTATGATACACACTTGGATAATTAAA [CACACA_site562]” is lower in “gcPBM binding intensity (ln)” value: 9.5 for the first, 9.49 for the second.

First: ATATTTTATTTATATACACACACATATATATATTAT [CACACA_site8177]
Second: CTTTATATAAAATAAAGTACATAAATTATGATATAT [XGTACX_site3699]
The “gcPBM binding intensity (ln)” value of the first is higher: 10.1 for the first, 9.52 for the second.

With “TTCTTTATATACAAACCAAAATATTATGTATAATAA [CACACA_negctrl_site15]” the “gcPBM binding intensity (ln)” value was 9.37.
